# The full ranking holds about 33,000 sequences; the median of “E-score (-0.5 to 0.5)” is about -0.053, and the highest 2% start at about 0.37. Some of the results follow.
# Molecular target: Hap1 (UniProt P0CE41)
# Assay: PBM E-score (8-mer binding enrichment) (E-score (-0.5 to 0.5)); higher = stronger / more preferred TF binding; most listed sequences are background and not binding sites
# Details: protein concentration: 200 nM; construct: GST-DNA-binding domain
# Description: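 Universal 'all 10-mer' protein binding microarrays (Agilent AMADID 015681) probed with GST-tagged S. cerevisiae TFs (full-length or DBD) made by in vitro transcription/translation (PURExpress), about 100-200 nM. Bound TF was detected with fluorescent anti-GST. Each ungapped 8-mer (which stands for itself and its reverse complement) is scored by the PBM enrichment score (E-score), a modified Wilcoxon-Mann-Whitney statistic from -0.5 to +0.5, computed with the Universal PBM Analysis Suite. Scale: above 0.35 generally sequence-specific binding.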
# Chain of UniProt P0CE41 (P0CE41 whole entry): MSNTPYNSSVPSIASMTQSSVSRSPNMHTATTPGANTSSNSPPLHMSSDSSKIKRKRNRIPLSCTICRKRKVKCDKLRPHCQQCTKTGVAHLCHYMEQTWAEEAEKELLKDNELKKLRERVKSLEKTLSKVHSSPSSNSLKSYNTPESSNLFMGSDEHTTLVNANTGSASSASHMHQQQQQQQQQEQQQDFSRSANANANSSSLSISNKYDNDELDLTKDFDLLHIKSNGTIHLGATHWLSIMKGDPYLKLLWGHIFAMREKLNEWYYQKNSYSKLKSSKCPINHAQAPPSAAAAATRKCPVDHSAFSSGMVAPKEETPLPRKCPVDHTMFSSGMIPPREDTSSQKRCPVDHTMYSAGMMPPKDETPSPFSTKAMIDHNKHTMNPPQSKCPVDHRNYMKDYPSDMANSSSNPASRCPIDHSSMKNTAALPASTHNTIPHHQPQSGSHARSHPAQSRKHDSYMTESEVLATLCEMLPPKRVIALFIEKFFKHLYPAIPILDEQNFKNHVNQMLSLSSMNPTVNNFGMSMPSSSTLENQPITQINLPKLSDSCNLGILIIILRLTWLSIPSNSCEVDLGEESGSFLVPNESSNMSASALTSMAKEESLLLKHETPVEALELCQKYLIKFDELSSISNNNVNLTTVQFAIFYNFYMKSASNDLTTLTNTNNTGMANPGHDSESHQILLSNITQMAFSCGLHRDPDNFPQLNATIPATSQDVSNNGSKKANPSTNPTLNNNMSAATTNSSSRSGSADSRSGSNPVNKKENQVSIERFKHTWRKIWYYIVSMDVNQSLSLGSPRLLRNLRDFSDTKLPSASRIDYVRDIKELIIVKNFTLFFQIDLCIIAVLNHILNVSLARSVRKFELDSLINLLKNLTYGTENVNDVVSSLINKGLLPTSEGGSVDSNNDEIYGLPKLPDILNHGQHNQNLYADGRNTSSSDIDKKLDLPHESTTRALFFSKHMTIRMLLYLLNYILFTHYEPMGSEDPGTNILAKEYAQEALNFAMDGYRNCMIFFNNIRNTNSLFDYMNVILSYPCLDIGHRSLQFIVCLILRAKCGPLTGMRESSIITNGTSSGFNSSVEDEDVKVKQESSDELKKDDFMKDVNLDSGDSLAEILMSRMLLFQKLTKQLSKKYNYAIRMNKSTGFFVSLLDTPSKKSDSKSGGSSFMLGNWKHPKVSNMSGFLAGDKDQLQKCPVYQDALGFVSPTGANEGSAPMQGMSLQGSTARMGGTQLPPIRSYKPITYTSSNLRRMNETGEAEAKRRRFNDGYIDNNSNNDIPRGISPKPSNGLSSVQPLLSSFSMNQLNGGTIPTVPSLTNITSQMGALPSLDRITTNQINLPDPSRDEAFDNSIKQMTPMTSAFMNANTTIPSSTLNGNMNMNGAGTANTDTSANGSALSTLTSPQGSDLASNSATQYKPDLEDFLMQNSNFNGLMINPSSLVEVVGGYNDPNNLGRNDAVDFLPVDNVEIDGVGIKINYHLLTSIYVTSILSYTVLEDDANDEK
row,Sequence,PBM E-score
1,CCATTTAC,-0.0154
2,AAAGAGGT,-0.196
3,ACCACTAT,-0.215
4,AAGGGATT,-0.24
5,ACTGAGGA,-0.081
6,ACCCAGCG,-0.104
7,AGGCCGAA,0.297
8,GACATTAC,0.0642
9,GGCGATAA,0.392
10,CACATCCC,0.0843
11,ATGATGAA,0.0397
12,CATAGTGG,-0.141
13,AGAAGCAG,-0.274
14,CTCTGGTA,-0.264
15,AGCCGTGG,-0.00519
16,ACAAGGTG,-0.159
17,GACGAGGA,-0.155
18,TATCGCGA,0.191
19,ACCAACTG,-0.157
20,AGATCGTC,-0.163
21,AGTCGAGG,-0.204
22,TAATAGAA,-0.157
23,ACTTACCA,-0.084
24,CCTTGGGA,-0.149
25,ACCCCGAC,0.308

row,Sequence,PBM E-score
1,CGGGCTAA,0.269
2,GAACGAAC,-0.055
3,AAAGTCCA,-0.0824
4,AGCCTGGA,-0.123
5,AATCCCTA,-0.0478
6,AGGGCTAG,-0.229
7,ACTATCCT,-0.0572
8,CTCAACTA,0.0118
9,AGGGTCAG,-0.191
10,AGACAGAC,-0.0391
11,ATATAGAA,-0.0207
12,GTAGACTA,-0.104
13,GAGATGGC,0.206
14,GTCCAGAA,-0.0915
15,CGTCACCC,0.0193
16,CATAGCGA,-0.0641
17,GTCCCTGA,-0.219
18,AGGTGGGG,-0.156
19,CACAGTTC,0.00993
20,CACTTTCG,0.0972
21,AAAATGGC,0.0713
22,TGCATTAA,-0.134
23,TCTTACCA,-0.223
24,CAAGTAGA,-0.055
25,AGGGACGA,-0.0468

row,Sequence,PBM E-score
1,CCGGCAAC,0.373
2,CTAGGAAA,-0.178
3,ATGACTGG,-0.0207
4,CCGTCCCG,0.261
5,GAGCTATC,0.229
6,CCTTATGC,0.0545
7,GCGGCGGA,0.382
8,CCTACCGC,0.076
9,AGGTGTTC,-0.246
10,CAGGGGGG,-0.211
11,AGCTATTG,-0.0584
12,AAGAAGAA,-0.0097
13,GCGATATA,0.24
14,ATGTCGCA,-0.0565
15,CAGAGGGA,-0.159
16,CGGAACAC,0.327
17,AGTCGTTG,-0.254
18,ATACGCGC,-0.0101
19,TAATGCCA,-0.00036
20,GCCTCAAC,-0.13
21,ACTTCCTG,-0.224
22,GAATCAAA,-0.0308
23,ATACTTAC,-0.0441
24,CGATGCAG,-0.0118
25,TAGACACA,-0.156

row,Sequence,PBM E-score
1,AGTTGTCA,-0.106
2,TCTATCCA,-0.0338
3,ACTTATCA,-0.148
4,ATAAGGGG,0.103
5,GACAACAA,-0.23
6,AGAGATAT,-0.111
7,AATTTTCC,0.33
8,GAGTGCAC,-0.0682
9,AGTGAAGA,-0.0142
10,AGCGGAAG,0.244
11,AACATTTA,-0.0693
12,AGCCATGA,-0.0149
13,GGGAGCCC,-0.0881
14,AAAGAACA,-0.191
15,CTGTTGTA,-0.126
16,TAACTTCA,-0.188
17,CAGATTAG,-0.167
18,CGGGAAAA,0.197
19,CCTATAAA,-0.0104
20,GCCGGCGA,0.364
21,CCAGTGCC,-0.00478
22,ATTTTGCA,-0.154
23,GACCGGCC,0.33
24,AGCCGTAT,-0.0519
25,CCGCGCAC,0.0776

row,Sequence,PBM E-score
1,AATCAAAA,-0.00327
2,CAATTAAC,0.148
3,CCCGCCGG,0.363
4,ACGTAGTC,-0.134
5,GAGGCAGA,-0.261
6,ACGCAGCC,-0.0627
7,AAATTAGT,-0.114
8,AAAAGCCG,0.414
9,AGGTGGAC,-0.18
10,GTTCCGCA,0.209
11,GAACGGTA,-0.0132
12,CCAGTACA,-0.124
13,ATCTTGAC,-0.203
14,AATTGGCA,-0.23
15,AGGGGTTC,-0.0848
16,GGTCCAGA,-0.0162
17,CGTGAATC,-0.0317
18,AAGTAGAT,0.0343
19,ACGATGCG,-0.207
20,CGCTCACG,0.118
21,AACGTACG,-0.141
22,ACTGCCTG,-0.243
23,ACGTGAAT,-0.229
24,CGTCTACC,0.0142
25,GCGGCTAC,0.207

row,Sequence,PBM E-score
1,GTGTTCGA,-0.161
2,CGTTTTCA,0.0032
3,CCGCCCCG,0.347
4,ATAAAATA,-0.0837
5,AAACGTCC,-0.091
6,GATGTCGC,0.0644
7,CTCATACC,-0.0563
8,GATTGGGA,-0.186
9,CGCTAGTA,0.22
10,CTGGTGGC,-0.294
11,AATCTCAG,-0.161
12,GCTTCACA,-0.21
13,ACTTCTTG,-0.128
14,AGTCGCAT,-0.159
15,ATTATGAA,-0.0166
16,GCTCAAAC,0.18
17,GCGAGCAC,-0.187
18,ATTCTTCG,0.105
19,CGTGATAA,-0.0733
20,GAGGCCAC,-0.189
21,AGTTCACC,0.0128
22,GTTTGGTA,-0.00217
23,CCTCACAG,-0.185
24,CTGCATAA,-0.0234
25,AAAGCCTT,-0.182

row,Sequence,PBM E-score
1,CAATGATA,-0.199
2,AGGCCACA,-0.218
3,AGGTAATA,0.0739
4,GTGGCCCA,-0.113
5,ATCCCTCG,0.0849
6,CCGCGGCG,0.317
7,GACGCCTA,0.0426
8,CCAGTGAA,-0.166
9,TCCCCAAA,-0.216
10,CGATTGTC,0.0632
11,CAAAAGCC,0.161
12,AATACAGC,0.0854
13,CTGATCGA,-0.208
14,ACTTCATC,-0.0854
15,GAAGGTAC,-0.267
16,AGGTCGTG,-0.347
17,CAGCGCAG,-0.114
18,CACGCTGA,-0.22
19,CAAGACCC,-0.0402
20,AAGACTCG,0.0784
21,AAGGCTGA,-0.16
22,AAATTGTG,-0.296

# From the supplement of paper PMC3334620
